Assay results as given in the supplement of paper PMC12217912.
Some of the results follow. Sequences were assembled here from the parent chain. Values near 0.05 are background.

B1: TEV protease; numbered along this chain (parent)
chain: MGESLFKGPRDYNPISSSICHLTNESDGHTTSLYGIGFGPFIITNKHLFRRNNGTLVVQSLHGVFKVKDTTTLQQHLVDGRDMIIIRMPKDFPPFPQKLKFREPQREERICLVTTNFQTKSMSSMVSDTSCTFPSGDGIFWKHWIQTKDGQCGSPLVSTRDGFIVGIHSASNFTNTNNYFTSVPKNFMELLTNQEAQQWVSGWRLNADSVLWGGHKVFMVKPEEPFQPVKEATQL

Variants of: B1
Experiment: raw area under fraction-flipped curve 0-4 h after induction (AUC4h, not background-subtracted), DNA-recorder readout of cleavage of the substrate (dimensionless); higher = more cleavage of the substrate by the protease variant
Details: temperature: 34 °C; time window: 0-4 h after rhamnose induction
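Note: Bxb1 expression induced with 0.2% (w/v) L-rhamnose at OD600 near 0.5, cultures sampled hourly, flipped fraction per protease–substrate barcode pair counted by paired-end Illumina sequencing.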

Variant | area with substrate ENAYFQS | area with substrate ENDYFQS | area with substrate ENEYFQS | area with substrate ENFYFQS | area with substrate ENGYFQS | area with substrate ENHYFQS | area with substrate ENIYFQS | area with substrate ENKYFQS | area with substrate ENNYFQS | area with substrate ENPYFQS | area with substrate ENQYFQS | area with substrate ENRYFQS | area with substrate ENSYFQS | area with substrate ENTYFQS | area with substrate ENVYFQS | area with substrate ENYYFQS | area with substrate ENCYFQS | area with substrate ENMYFQS | area with substrate ENWYFQS
L211Q | 0.0701 | 0.0697 | 0.0544 | 0.0528 | 0.0718 | 0.0676 | 0.115 | 0.0714 | 0.0666 | 0.0598 | 0.067 | 0.0536 | 0.0605 | 0.0553 | 0.0526 | 0.0685 |  |  | 
S158G | 0.0394 | 0.0531 | 0.042 | 0.0719 | 0.0649 | 0.055 |  |  | 0.0656 |  |  |  | 0.0578 | 0.0598 | 0.0724 | 0.0716 | 0.0698 |  | 
L205M | 0.0458 | 0.0473 |  | 0.072 |  | 0.0543 |  | 0.0618 |  | 0.0605 | 0.0816 | 0.0477 | 0.0406 | 0.0644 | 0.0739 | 0.0497 | 0.0616 | 0.112 | 0.0579
L205G | 0.0594 | 0.0694 |  | 0.0493 |  |  | 0.0593 | 0.0501 | 0.0482 |  | 0.0679 | 0.05 | 0.0534 | 0.0488 | 0.0536 |  |  | 0.0645 | 
M188P | 0.0471 | 0.0619 | 0.0675 |  | 0.0636 | 0.0628 |  | 0.0633 | 0.0422 |  | 0.0651 | 0.0511 |  | 0.0655 |  | 0.0549 | 0.0716 |  | 
S209V | 0.0542 | 0.05 | 0.0575 | 0.0653 | 0.0714 | 0.072 | 0.102 | 0.0719 | 0.0694 |  | 0.0536 | 0.0908 | 0.058 | 0.0558 | 0.0841 | 0.0756 |  |  | 0.0769
N177S | 0.0561 | 0.0483 | 0.0575 | 0.0559 | 0.0522 | 0.054 | 0.0634 |  | 0.0449 | 0.0435 | 0.0484 | 0.049 | 0.0507 | 0.0478 | 0.0507 | 0.0476 | 0.0548 | 0.0596 | 0.0451
N177L | 0.0621 |  | 0.0545 | 0.0511 | 0.061 | 0.0703 |  |  |  |  | 0.0474 | 0.0541 | 0.0612 | 0.0727 | 0.0705 |  | 0.0857 | 0.0903 | 
K221F | 0.0297 | 0.0542 | 0.0487 | 0.0708 | 0.0545 | 0.0534 |  |  | 0.0498 |  | 0.0566 | 0.0548 | 0.065 | 0.0562 | 0.0696 | 0.0465 | 0.0582 | 0.0579 | 
L190Y | 0.0253 | 0.0864 | 0.0597 | 0.0517 | 0.0618 | 0.0356 |  |  | 0.0688 | 0.068 | 0.0648 | 0.0584 | 0.0626 | 0.0586 |  | 0.0644 | 0.0693 |  | 0.0649
L190M | 0.0549 | 0.0567 | 0.0633 | 0.0644 | 0.0614 | 0.0547 |  | 0.0609 | 0.0375 | 0.0388 | 0.0665 | 0.0646 | 0.0513 | 0.0619 | 0.115 | 0.0561 |  | 0.085 | 
E223I | 0.0647 | 0.0623 | 0.0574 |  | 0.0632 | 0.0569 | 0.135 |  | 0.0753 | 0.0733 | 0.0647 | 0.0679 | 0.0669 | 0.0642 |  |  |  |  | 
